From article PMC12136788 come the findings set out here.

Some of the results follow.

To fix the notation:
B1: chr11:124038068:124039001:-|CDS|ENSG00000182634|control|control|control (ssRNA)
RNA: GGGAGUUCUACAGUCCGACGAUCCAACGAGAUGGUCAUCUUUGUGAAUAUUGGGCUAGUGGCCUCGGGCUGCUUUGUCCUGAUAGUGCUGUCCUAUGUGUCCAUCGUCUGUUCCAUCCUGCGGAUCCGCACCUCAGAGGGGAGCAACAGAGGAUUGAGCAUCA
B2: chr20:35286537:35287972:-|CDS|ENSG00000125998|control|control|control (ssRNA)
RNA: GGGAGUUCUACAGUCCGACGAUCAAUCUCGGCAAGCUAGGGGCAUACCCAUGGUCCCAGUCCUCCCCUGCCCUCAACCAUAAUAGUACCAGCCCCUUAACCUUGGCAGUGGGGUCACCUCUGCUUCCUCGCUCCCGGCCCCUCCAACAGAGGAUUGAGCAUCA
B3: chr5:173316221:173316322:-|3pUTR|ENSG00000113739|msi1|total|mutant (ssRNA)
RNA: GGGAGUUCUACAGUCCGACGAUCAGUACUUUCAGUUUGGCGAGCCGUGAGGUCUCUGUCGAAACUACUCAACUCUGCCGUCCCCGCACAAAAGCAGCCACCGACAACACACAAACGAGAGGGCUUGGCUCCCUUCCAGGAAGACAACAGAGGAUUGAGCAUCA
B4: ENSG00000198589:be:win_2701|CDS|ENSG00000198589|bound_else_gene|NA|bound_elsewhere_windowed (ssRNA)
RNA: GGGAGUUCUACAGUCCGACGAUCGCAGUCAAAUAUGAGUGGGGUGGCUGGCGUGUAUGGGUAGACACUUUAUCAAUCACUCAUUCAAAGGUCACUUUUGAAAUACACAAAGAAAACCUUGCCAAUAUAUUUAGGGAACAGCAACAACAGAGGAUUGAGCAUCA
B5: chr5:151662744:151662768:-|3pUTR|ENSG00000113140|msi1_unk|FALSE|overlapping (ssRNA)
RNA: GGGAGUUCUACAGUCCGACGAUCGGGGCUCUAGGGACUGCCAGGCUGUUUCAGCCAGGAAGGCCAAAAUCAAGAGUGAGAUGUAGAAAGUUGUAAAAUAGAAAAAGUGGAGUUGGUGAAUCGGUUGUUCUUUCCUCACAUUUGCAACAGAGGAUUGAGCAUCA
B6: chr18:49591392:49591493:+|3pUTR|ENSG00000101670|msi1|FALSE|unique (ssRNA)
RNA: GGGAGUUCUACAGUCCGACGAUCCCUUCUUAGUUAUUAUGUGCCACCUCCCCUAUGAGUGACGUGUUUGAUCACUAGCAGAAUAGCAAGCAGAGUAUCAUUCAUGCUGGGGCCAGAAUGAUGGCCGGUUGCCAGAUAUAACUGCAACAGAGGAUUGAGCAUCA
B7: chr6:17764380:17764481:-|CDS|ENSG00000137177|msi1|FALSE|unique (ssRNA)
RNA: GGGAGUUCUACAGUCCGACGAUCCCAGAGCAUCCCUGAGAAAAACUCCAAAUCACUGUGCAGGACUGGCUCAUGUUCAGAACUAGAUGCCUGCCCCAGCAAAAUUAGCCAGCCAGCCAGGGGAUUCUGCCCCAGGGAGGUGACCAACAGAGGAUUGAGCAUCA
B8: chr6:7881277:7881391:+|3pUTR|ENSG00000153162|unk|FALSE|unique (ssRNA)
RNA: GGGAGUUCUACAGUCCGACGAUCGCUGUUUAUGAACGGAAAUCAUGAUUUCCCUUGUAGAAAGUGAGGCUCAGAUUAAAUUUUAGAAUAUUUUCUAAAUGUCUUUUUCACAAUCAUGUACUGGGAAGGCAAUUUCAUACUAAACAACAGAGGAUUGAGCAUCA
B9: ENSG00000198589:be:win_5551|CDS|ENSG00000198589|bound_else_gene|NA|bound_elsewhere_windowed (ssRNA)
RNA: GGGAGUUCUACAGUCCGACGAUCGUGGAAUUGGUUAUGCUACUGUGUUCUCAGGAGUGGCAAAAUUCUAUUCAGAAGAAUGCAGGCCUUGCUUUUAUCGAACUUGUCAAUGAAGGAAGGUUGCUUAGCCAGACAAUGAAGGAUCAACAGAGGAUUGAGCAUCA
B10: chr2:73228009:73228453:-|three_prime_utr|ENSG00000135617|control|control|control (ssRNA)
RNA: GGGAGUUCUACAGUCCGACGAUCUAAGUGACUCUGAGCUGGGAAGGGGAAACCCAGGAAUUUUGCUACUUGGAAUUUGGAGAUAGCAUCUGGGGACAAGUGGAGCCAGGUAGAGGAAAAGGGUUUGGGCGUUGCUAGGCUGAACAACAGAGGAUUGAGCAUCA
B11: chrX:65740646:65740790:+|3pUTR|ENSG00000147065|msi1|total|mutant (ssRNA)
RNA: GGGAGUUCUACAGUCCGACGAUCGGCCAUUCUAUUGUGGCAAGGCUGAGCCGAAGAUCCUACCCCAAUUCCUUGCCGGAGUACCGGCCGGUCUAAAGUGAGCUCUAUGGGCAGAUCUACCCCUUACUUAUUAUUCCAGAUCUGCAACAGAGGAUUGAGCAUCA
B12: chr11:44260439:44264853:-|three_prime_utr|ENSG00000052850|control|control|control (ssRNA)
RNA: GGGAGUUCUACAGUCCGACGAUCGACACCAUGGGCCACGCCCAUGUUUUCCAGGCCCCCAGCCUCCCACUCGACUUUCCUCUUAGGAACCUGGCCUGGGCCAGGGGCCUGACCCUCAGCACUUUCAGCCGCCCCAAGUCUGAGCAACAGAGGAUUGAGCAUCA
B13: chr5:154817497:154817598:+|3pUTR|ENSG00000155506|msi1_unk|FALSE|overlapping (ssRNA)
RNA: GGGAGUUCUACAGUCCGACGAUCUUAUUGAGAGUAUCUGCUUUCCAGGCUGAAGUGAUUCAUUCAUUAUUCUAGUCCUGCUUUAGUCCUUUGUAAUUUGUGGUAAUUAUGCUUUUCUUUUUAAUACAAAAAAAUGUAUAAAAACAACAGAGGAUUGAGCAUCA
B14: chr3:48432659:48432768:-|CDS|ENSG00000164051|unk|FALSE|unique (ssRNA)
RNA: GGGAGUUCUACAGUCCGACGAUCAGUCCCCCGACCAGAGACAGAGAUGUAGAUGUCCUUUCAGCUGCCUUGAAAGAGCAGCUUAGUCAUUCCAGGCAAGUCCAUUCAUGUCUAGAAGGCUUACGAGAGCAGCUUGAUGGCCUACAACAGAGGAUUGAGCAUCA

The target in the test is MSI1 full-length (mouse, UniProt Q61474 1-362). The experiment in a line: nsRBNS (natural sequence RNA bind-n-seq); RBNS binding buffer (assumed for nsRBNS): 25 mM Tris pH 7.5, 150 mM KCl, 3 mM MgCl2, 0.01% Triton X-100, 500 ug/ml BSA, 20 U/ml SUPERase-In, 4 C; UNK is unkempt and MSI1 is Musashi-1; names of the RNAs are library labels; protein concentration not given here; high values mean tight binding.
Sequence of UniProt Q61474 (Q61474 whole entry): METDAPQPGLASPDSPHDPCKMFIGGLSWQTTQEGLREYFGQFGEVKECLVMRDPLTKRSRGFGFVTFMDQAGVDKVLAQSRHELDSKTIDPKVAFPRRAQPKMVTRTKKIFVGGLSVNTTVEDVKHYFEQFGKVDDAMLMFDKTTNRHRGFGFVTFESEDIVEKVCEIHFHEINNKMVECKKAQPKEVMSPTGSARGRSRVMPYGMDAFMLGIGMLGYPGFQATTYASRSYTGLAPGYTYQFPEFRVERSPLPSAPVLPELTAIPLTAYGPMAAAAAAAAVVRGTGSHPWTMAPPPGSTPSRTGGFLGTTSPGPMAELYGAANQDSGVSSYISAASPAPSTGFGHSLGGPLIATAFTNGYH
On to B1, for which the binding signal came to 0.398 enrichment R.
The value for B2 was 0.687 enrichment R; that for B3 was 0.523 enrichment R.
The value for B4 was 1.26 enrichment R; that for B5 was 4.98 enrichment R.
The figure for B6 is 12.1 enrichment R; for B7 it is 0.688 enrichment R; for B8 it is 0.451 enrichment R.
In turn, B9 yielded a binding signal of 0.275 enrichment R.
The figure for B10 is 0.6 enrichment R; for B11 it is 0.593 enrichment R; for B12 it is 0.408 enrichment R.
The figure for B13 is 1.21 enrichment R; for B14 it is 0.46 enrichment R.
